The other results are listed elsewhere or left out. At the low end of the ranking the order means little.

This test concerns the target GST-SBP-SLBP (stem-loop binding protein) (UniProt Q14493). The test is described as follows: targeted RNA Bind-n-Seq.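 Note: DESeq read counts versus GST-SBP nonspecific binding control pulldown.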 The conditions noted are these: RBNS binding buffer: 25 mM Tris pH 7.5, 150 mM KCl, 3 mM MgCl2, 0.1% Tween, 0.5 mg/mL BSA, 1 mM DTT; 27 nM protein, 750 pM RNA pool; temperature not stated; high values mean tight binding.
As for “GGUCACGUCUCAAUCAACUCAUCCUCAGGAGUUUGCUCCUGCUUAUUCAACAGCUCGCAGUCAAG”, the binding signal (log2 fold change) came out at 0.0541. In the case of “GGUCACGUCUCAAUCAACUCCCUAGAGGGGGGGAAAACCCCUUUACCCUCCAUAUCAACAGCUCGCAGUCAAG” it was 0.133; in that of “GGUCACGUCUCAAUCAACUCAUUUUCCAGGGAAAUCCCUGGUUUUUUCAACAGCUCGCAGUCAAG”, -0.249. On to “GGUCACGUCUCAAUCAACUCAUCUCCAGGAGUUUUCUCCUGUAAAGUCAACAGCUCGCAGUCAAG”, for which the binding signal (log2 fold change) is -0.109. In the case of “GGUCACGUCUCAAUCAACUCUACUUCCAGGGAAAACCCUGGCUAUCUCAACAGCUCGCAGUCAAG” it was 0.22; in that of “GGUCACGUCUCAAUCAACUCUAAAGAGGGGGGGAAAACCCCUUUACCCUCAUUUUCAACAGCUCGCAGUCAAG”, -0.0582; in that of “GGUCACGUCUCAAUCAACUCAUCUUCAGGAGUUUCCUCCUGUUAUCUCAACAGCUCGCAGUCAAG”, 0.0709. Regarding “GGUCACGUCUCAAUCAACUCUUCUUCAGGAGUUUGCUCCUGCAUAUUCAACAGCUCGCAGUCAAG”, the binding signal (log2 fold change) is -0.115. In the case of “GGUCACGUCUCAAUCAACUCAUUCUCAGGAGUUUCCUCCUGUUAUCUCAACAGCUCGCAGUCAAG” it was 0.0299; in that of “GGUCACGUCUCAAUCAACUCCCAAGAGGGGGGGAAAACCCCUUUACCCUCAUUAUCAACAGCUCGCAGUCAAG”, -0.146; in that of “GGUCACGUCUCAAUCAACUCUUUCUCCAGGGAAAGCCCUGGCUAACUCAACAGCUCGCAGUCAAG”, 0.0826. As for “GGUCACGUCUCAAUCAACUCACAAGAGGGGGGGAAAACCCCUUUACCCUCACUCUCAACAGCUCGCAGUCAAG”, the figure is 0.304; as for “GGUCACGUCUCAAUCAACUCUUCUCCCAGGGAAAACCCUGGCAUAUUCAACAGCUCGCAGUCAAG”, 0.0621. As for “GGUCACGUCUCAAUCAACUCAUCUCCAGGAGUUUUCUCCUGCAAAGUCAACAGCUCGCAGUCAAG”, the figure is 0.156; as for “GGUCACGUCUCAAUCAACUCAAUCUCCAGGGAAACCCCUGGCAAAGUCAACAGCUCGCAGUCAAG”, 0.012; as for “GGUCACGUCUCAAUCAACUCAUCCUCCAGGGAAAGCCCUGGUAAUCUCAACAGCUCGCAGUCAAG”, -0.27. Turning to “GGUCACGUCUCAAUCAACUCUUUUUCCAGGGAAAGCCCUGGCAAUCUCAACAGCUCGCAGUCAAG”, the binding signal (log2 fold change) was -0.0501. As for “GGUCACGUCUCAAUCAACUCAUCUCCCAGGGAAACCCCUGGUUAUCUCAACAGCUCGCAGUCAAG”, the figure is 0.231. In the case of “GGUCACGUCUCAAUCAACUCUACAGAGGGGGGGAAAACCCCUUUACCCUCCUAAUCAACAGCUCGCAGUCAAG” it was -0.101; in that of “GGUCACGUCUCAAUCAACUCUAUCUCCAGGGAAAACCCUGGCUAUUUCAACAGCUCGCAGUCAAG”, 0.433.

As to “GGUCACGUCUCAAUCAACUCAAUCUCCAGGGAAAUCCCUGGUAUAUUCAACAGCUCGCAGUCAAG”, the binding signal (log2 fold change) stood at 0.0858. As for “GGUCACGUCUCAAUCAACUCAAUUUCAGGAGUUUGCUCCUGUUUAUUCAACAGCUCGCAGUCAAG”, the figure is 0.0538; as for “GGUCACGUCUCAAUCAACUCAACAGAGGGGGGGAAAACCCCUUUACCCUCCAUAUCAACAGCUCGCAGUCAAG”, -0.134. As for “GGUCACGUCUCAAUCAACUCAAUUUCAGGAGUUUGCUCCUGUAUUCUCAACAGCUCGCAGUCAAG”, the figure is 0.0216; as for “GGUCACGUCUCAAUCAACUCUUACGAGGGGGGGAAAACCCCUUUACCCUCAUCCUCAACAGCUCGCAGUCAAG”, 0.156; as for “GGUCACGUCUCAAUCAACUCUUCUCCCAGGGAAACCCCUGGUAUUCUCAACAGCUCGCAGUCAAG”, 0.0922.

With “GGUCACGUCUCAAUCAACUCUUUCCCCAGGGAAAGCCCUGGCAAUCUCAACAGCUCGCAGUCAAG”, the binding signal (log2 fold change) worked out at 0.161.

Turning to “GGUCACGUCUCAAUCAACUCAACUUCAGGAGUUUACUCCUGCUUAUUCAACAGCUCGCAGUCAAG”, the binding signal (log2 fold change) was 0.0699. In the case of “GGUCACGUCUCAAUCAACUCAACUUCAGGAGUUUUCUCCUGUUUUCUCAACAGCUCGCAGUCAAG” it was -0.18. “GGUCACGUCUCAAUCAACUCAACUCCCAGGGAAAACCCUGGCUAACUCAACAGCUCGCAGUCAAG”: the binding signal (log2 fold change) was determined as 0.146. Regarding “GGUCACGUCUCAAUCAACUCAUCUUCCAGGGAAACCCCUGGUUUAUUCAACAGCUCGCAGUCAAG”, the binding signal (log2 fold change) amounted to 0.102.

Take “GGUCACGUCUCAAUCAACUCAUUUCCAGGAGUUUACUCCUGCAAACUCAACAGCUCGCAGUCAAG”: the binding signal (log2 fold change) was -0.00363. For “GGUCACGUCUCAAUCAACUCUUCGGCAGGAGUUUACUCCUGGAAUUUCAACAGCUCGCAGUCAAG”, the binding signal (log2 fold change) was determined as 0.0431. In the case of “GGUCACGUCUCAAUCAACUCUAUUUCCAGGGAAAUCCCUGGCAUAUUCAACAGCUCGCAGUCAAG” it was 0.124. As for “GGUCACGUCUCAAUCAACUCCUUAGAGGGGGGGAAAACCCCUUUGCCCUCCAAUUCAACAGCUCGCAGUCAAG”, the figure is 0.133. For the sequence “GGUCACGUCUCAAUCAACUCAAUCUCCAGGGAAAACCCUGGCUUACUCAACAGCUCGCAGUCAAG”, the binding signal (log2 fold change) worked out at 0.131. Regarding “GGUCACGUCUCAAUCAACUCAUUCCCCAGGGAAACCCCUGGUUAUCUCAACAGCUCGCAGUCAAG”, the binding signal (log2 fold change) is -0.372. In the case of “GGUCACGUCUCAAUCAACUCAAUAGAGGGGGGGAAAACCCCUUUACCCUCAUUUUCAACAGCUCGCAGUCAAG” it was 0.161; in that of “GGUCACGUCUCAAUCAACUCAAAAGAGGGGGGGAAAACCCCUUUACCCUCCACUUCAACAGCUCGCAGUCAAG”, 0.104; in that of “GGUCACGUCUCAAUCAACUCACCCGAGGGGGGGAAAACCCCUUUACCCUCAAUAUCAACAGCUCGCAGUCAAG”, -0.229.

Take “GGUCACGUCUCAAUCAACUCUUUUUCAGGAGUUUUCUCCUGCAAUCUCAACAGCUCGCAGUCAAG”: the binding signal (log2 fold change) is -0.0408. In the case of “GGUCACGUCUCAAUCAACUCCCUAGAGGGGGGGAAAACCCCUUUACCCUCAAUUUCAACAGCUCGCAGUCAAG” it was -0.729. In the case of “GGUCACGUCUCAAUCAACUCAAGUCCAGGAGUUUACUCCUGCAUAUUCAACAGCUCGCAGUCAAG” it was -0.136; in that of “GGUCACGUCUCAAUCAACUCAUUUCCCAGGGAAACCCCUGGCUAUCUCAACAGCUCGCAGUCAAG”, -0.112; in that of “GGUCACGUCUCAAUCAACUCAUCUUCCAGGGAAAUCCCUGGUAAUCUCAACAGCUCGCAGUCAAG”, 0.248.

Consider “GGUCACGUCUCAAUCAACUCUUUCGAGGGGGGGAAAACCCCUUUACCCUCACAUUCAACAGCUCGCAGUCAAG”, for which the binding signal (log2 fold change) was -0.078.

Turning to “GGUCACGUCUCAAUCAACUCAACUCCCAGGGAAAACCCUGGCAUAUUCAACAGCUCGCAGUCAAG”, the binding signal (log2 fold change) is -0.00412.

Consider “GGUCACGUCUCAAUCAACUCAAUCCCCAGGGAAAGCCCUGGCAAUCUCAACAGCUCGCAGUCAAG”, for which the binding signal (log2 fold change) is -0.116. For the sequence “GGUCACGUCUCAAUCAACUCUUUUCCAGGAGUUUACUCCUGCAUACUCAACAGCUCGCAGUCAAG”, the binding signal (log2 fold change) stood at 0.0562. As to “GGUCACGUCUCAAUCAACUCAUCGUCCAGGGAAAUCCCUGGUAUUUUCAACAGCUCGCAGUCAAG”, the binding signal (log2 fold change) is 0.0744. As to “GGUCACGUCUCAAUCAACUCUUCUUCCAGGGAAAUCCCUGGCUUUCUCAACAGCUCGCAGUCAAG”, the binding signal (log2 fold change) was -0.0155. In the case of “GGUCACGUCUCAAUCAACUCAUUUCCCAGGGAAAACCCUGGCAUAUUCAACAGCUCGCAGUCAAG” it was 0.255; in that of “GGUCACGUCUCAAUCAACUCUCAAGAGGGGGGGAAAACCCCUUUGCCCUCAUAUUCAACAGCUCGCAGUCAAG”, -0.268. As for “GGUCACGUCUCAAUCAACUCAUUUUCCAGGGAAAUCCCUGGCUUAUUCAACAGCUCGCAGUCAAG”, the figure is -0.0954; as for “GGUCACGUCUCAAUCAACUCUCAAGAGGGGGGGAAAACCCCUUUGCCCUCAACAUCAACAGCUCGCAGUCAAG”, 0.531; as for “GGUCACGUCUCAAUCAACUCUCCAGAGGGGGGGAAAACCCCUUUGCCCUCACAAUCAACAGCUCGCAGUCAAG”, -0.123. Take “GGUCACGUCUCAAUCAACUCUAUUUCCAGGGAAACCCCUGGCUAUUUCAACAGCUCGCAGUCAAG”: the binding signal (log2 fold change) was -0.0822. “GGUCACGUCUCAAUCAACUCUUUCUCCAGGGAAAUCCCUGGCAAUGUCAACAGCUCGCAGUCAAG”: the binding signal (log2 fold change) was -0.337. As for “GGUCACGUCUCAAUCAACUCAAUCCCCAGGGAAACCCCUGGCUAAUUCAACAGCUCGCAGUCAAG”, the figure is 0.0284; as for “GGUCACGUCUCAAUCAACUCAAUUUCCAGGGAAAACCCUGGCUAUUUCAACAGCUCGCAGUCAAG”, -0.138. Regarding “GGUCACGUCUCAAUCAACUCAUCCCCCAGGGAAAUCCCUGGCUAACUCAACAGCUCGCAGUCAAG”, the binding signal (log2 fold change) turned out to be 0.196. Regarding “GGUCACGUCUCAAUCAACUCAACGCCAGGAGUUUUCUCCUGUAAUUUCAACAGCUCGCAGUCAAG”, the binding signal (log2 fold change) worked out at 0.121. As for “GGUCACGUCUCAAUCAACUCAGUCCCAGGAGUUUUCUCCUGCUUUCUCAACAGCUCGCAGUCAAG”, the figure is -0.115. As for “GGUCACGUCUCAAUCAACUCAACGCCAGGAGUUUUCUCCUGCAUAUUCAACAGCUCGCAGUCAAG”, the figure is 0.281.

As to “GGUCACGUCUCAAUCAACUCUUUCGCCAGGGAAACCCCUGGGUAUUUCAACAGCUCGCAGUCAAG”, the binding signal (log2 fold change) was 0.0915. In the case of “GGUCACGUCUCAAUCAACUCAAUCUCCAGGGAAACCCCUGGCUUAUUCAACAGCUCGCAGUCAAG” it was -0.259; in that of “GGUCACGUCUCAAUCAACUCUUCUCCAGGAGUUUACUCCUGUAAUGUCAACAGCUCGCAGUCAAG”, -0.0272.

Consider “GGUCACGUCUCAAUCAACUCAGUCUCAGGAGUUUUCUCCUGCUAUUUCAACAGCUCGCAGUCAAG”, for which the binding signal (log2 fold change) was -0.0075. In the case of “GGUCACGUCUCAAUCAACUCAUUUCCAGGAGUUUACUCCUGUUAACUCAACAGCUCGCAGUCAAG” it was 0.0524. As for “GGUCACGUCUCAAUCAACUCCCAAGAGGGGGGGAAAACCCCUUUGCCCUCAAUGUCAACAGCUCGCAGUCAAG”, the figure is -0.257; as for “GGUCACGUCUCAAUCAACUCUAUCUCAGGAGUUUUCUCCUGUAAAUUCAACAGCUCGCAGUCAAG”, -0.155; as for “GGUCACGUCUCAAUCAACUCAUCUCCAGGAGUUUACUCCUGCAAACUCAACAGCUCGCAGUCAAG”, 0.00181. As for “GGUCACGUCUCAAUCAACUCUUUUCCCAGGGAAAACCCUGGCUAUCUCAACAGCUCGCAGUCAAG”, the figure is 0.0183. On to “GGUCACGUCUCAAUCAACUCUAUUCCCAGGGAAAACCCUGGCUUACUCAACAGCUCGCAGUCAAG”, for which the binding signal (log2 fold change) worked out at 0.163.

The values above are taken from article PMC5892938.
